Results on four molecules are retold here after publication PMC10040399.

Protein sequences, listed by entry. Tags and fused reporters are not part of them.
UniProt Q96EQ9: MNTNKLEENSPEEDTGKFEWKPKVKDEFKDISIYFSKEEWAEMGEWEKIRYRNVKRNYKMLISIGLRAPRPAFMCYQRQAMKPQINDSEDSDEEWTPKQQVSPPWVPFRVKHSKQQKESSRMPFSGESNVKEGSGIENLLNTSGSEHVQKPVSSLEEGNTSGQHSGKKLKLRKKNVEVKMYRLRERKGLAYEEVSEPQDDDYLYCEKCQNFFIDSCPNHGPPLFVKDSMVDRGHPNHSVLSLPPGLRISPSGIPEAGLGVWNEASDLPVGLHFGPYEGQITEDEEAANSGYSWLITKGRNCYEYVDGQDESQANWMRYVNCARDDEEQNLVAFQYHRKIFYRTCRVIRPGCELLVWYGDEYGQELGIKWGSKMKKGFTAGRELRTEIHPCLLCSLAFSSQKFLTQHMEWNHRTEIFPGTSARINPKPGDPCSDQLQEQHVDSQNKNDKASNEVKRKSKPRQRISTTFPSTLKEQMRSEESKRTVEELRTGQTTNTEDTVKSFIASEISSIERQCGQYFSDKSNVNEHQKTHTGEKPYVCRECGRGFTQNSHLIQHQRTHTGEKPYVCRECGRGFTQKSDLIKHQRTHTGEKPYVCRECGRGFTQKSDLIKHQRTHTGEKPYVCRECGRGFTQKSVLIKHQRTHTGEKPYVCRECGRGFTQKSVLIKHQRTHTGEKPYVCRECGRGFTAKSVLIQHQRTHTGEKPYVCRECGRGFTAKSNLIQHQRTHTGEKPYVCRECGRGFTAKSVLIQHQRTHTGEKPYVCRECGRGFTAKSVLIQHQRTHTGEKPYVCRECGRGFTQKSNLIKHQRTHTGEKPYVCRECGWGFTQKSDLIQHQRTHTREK
UniProt P56959: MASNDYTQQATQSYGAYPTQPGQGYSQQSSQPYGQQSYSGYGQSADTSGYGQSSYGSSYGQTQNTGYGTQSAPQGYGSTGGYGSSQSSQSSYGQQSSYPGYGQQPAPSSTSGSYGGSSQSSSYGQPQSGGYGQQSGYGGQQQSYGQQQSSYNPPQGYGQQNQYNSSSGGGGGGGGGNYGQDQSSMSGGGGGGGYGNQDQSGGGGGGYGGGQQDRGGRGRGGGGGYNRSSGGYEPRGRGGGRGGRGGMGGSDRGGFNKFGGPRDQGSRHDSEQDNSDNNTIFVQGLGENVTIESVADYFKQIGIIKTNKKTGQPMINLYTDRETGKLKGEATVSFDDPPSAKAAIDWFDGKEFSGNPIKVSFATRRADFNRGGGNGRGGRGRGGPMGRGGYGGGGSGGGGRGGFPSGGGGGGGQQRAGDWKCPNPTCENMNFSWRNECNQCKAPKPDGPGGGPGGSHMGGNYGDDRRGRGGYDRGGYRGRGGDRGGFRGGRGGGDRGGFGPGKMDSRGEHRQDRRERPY
UniProt Q61545: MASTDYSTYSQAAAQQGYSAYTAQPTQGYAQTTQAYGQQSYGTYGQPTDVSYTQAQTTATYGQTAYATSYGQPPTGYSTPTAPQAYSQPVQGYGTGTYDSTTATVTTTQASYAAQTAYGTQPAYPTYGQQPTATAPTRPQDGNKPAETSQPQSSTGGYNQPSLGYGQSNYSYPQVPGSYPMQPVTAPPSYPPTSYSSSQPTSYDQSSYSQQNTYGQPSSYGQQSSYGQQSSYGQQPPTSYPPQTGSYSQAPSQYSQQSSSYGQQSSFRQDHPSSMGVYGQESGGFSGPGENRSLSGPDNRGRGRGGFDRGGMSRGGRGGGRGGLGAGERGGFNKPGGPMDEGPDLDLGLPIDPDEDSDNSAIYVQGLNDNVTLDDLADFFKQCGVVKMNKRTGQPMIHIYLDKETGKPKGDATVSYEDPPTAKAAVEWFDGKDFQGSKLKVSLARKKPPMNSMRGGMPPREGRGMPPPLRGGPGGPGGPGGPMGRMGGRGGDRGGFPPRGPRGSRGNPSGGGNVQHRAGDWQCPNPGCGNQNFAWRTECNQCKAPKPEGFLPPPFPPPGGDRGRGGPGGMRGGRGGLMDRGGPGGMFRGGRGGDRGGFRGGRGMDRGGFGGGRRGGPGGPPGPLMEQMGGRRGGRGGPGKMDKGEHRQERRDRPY
UniProt P35637: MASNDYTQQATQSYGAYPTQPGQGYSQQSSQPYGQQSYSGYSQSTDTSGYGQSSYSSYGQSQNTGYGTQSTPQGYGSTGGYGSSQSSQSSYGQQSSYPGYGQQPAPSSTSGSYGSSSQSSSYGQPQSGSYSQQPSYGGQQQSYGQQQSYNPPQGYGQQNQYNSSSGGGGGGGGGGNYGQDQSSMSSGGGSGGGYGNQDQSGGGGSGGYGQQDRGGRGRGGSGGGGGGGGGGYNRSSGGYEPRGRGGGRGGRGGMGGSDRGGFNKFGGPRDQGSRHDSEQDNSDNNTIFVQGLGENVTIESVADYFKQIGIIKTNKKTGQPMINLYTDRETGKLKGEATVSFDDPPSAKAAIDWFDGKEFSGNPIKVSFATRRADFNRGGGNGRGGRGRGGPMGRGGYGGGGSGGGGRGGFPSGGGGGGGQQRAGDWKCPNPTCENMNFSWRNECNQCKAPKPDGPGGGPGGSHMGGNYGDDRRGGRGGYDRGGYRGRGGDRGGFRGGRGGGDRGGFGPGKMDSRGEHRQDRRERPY

Like-named read-outs stand apart in the source and are kept apart here. Results are given in words; binding and its absence hold for the method and conditions named. In cells and extracts the contact can be indirect. Some entries that bind do so weakly or less than the wild type. For some of these results: Tags and fused reporters may be left off the sequences shown.

Assay [1] has as its target T1, SPO11, endogenous in wild-type mouse testis (mouse (endogenous in testis)) (UniProt Q9WTK8).
T1 sequence: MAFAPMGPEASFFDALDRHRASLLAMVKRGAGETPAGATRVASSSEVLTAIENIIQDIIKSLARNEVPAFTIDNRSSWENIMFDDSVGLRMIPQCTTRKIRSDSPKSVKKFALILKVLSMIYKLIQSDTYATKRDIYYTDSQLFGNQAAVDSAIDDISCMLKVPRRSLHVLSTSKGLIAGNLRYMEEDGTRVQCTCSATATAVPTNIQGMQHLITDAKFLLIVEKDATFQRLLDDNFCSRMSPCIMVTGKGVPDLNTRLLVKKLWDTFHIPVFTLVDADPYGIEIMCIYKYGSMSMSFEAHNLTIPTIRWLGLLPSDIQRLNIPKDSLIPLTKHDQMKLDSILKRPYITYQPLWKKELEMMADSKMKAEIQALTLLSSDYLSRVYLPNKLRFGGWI
Briefly: co-IP; anti-SPO11-180 antibody on Dynabeads Protein-A, 4 °C; total testis extracts of juvenile (12 dpp) wild-type mice (FUS and PRDM9 weaker from adult testes) and of adult Spo11β-only or Spo11α-only knock-in mice, Pierce IP lysis buffer with benzonase; Western blot.

Assay [2] has as its target PRDM9-maltose binding protein (full-length Prdm9^Dom2 allele with MBP tag) (mouse) (UniProt Q96EQ9). Briefly: pull-down; PRDM9-MBP on amylose resin incubated 3 h at 4 °C with HEK293 lysate in HEK-lysis buffer (400 mM NaCl, 5 mM EDTA, 50 mM Hepes-NaOH pH 7.4, 1% Triton X-100); washed with PBS; Western blot for FUS; only the target purified. (In general: Immunoblotting shows a protein as a band on a membrane.)

In assay [3] the target is T2, SPO11α-GST recombinant protein (UniProt Q9WTK8).
T2 sequence: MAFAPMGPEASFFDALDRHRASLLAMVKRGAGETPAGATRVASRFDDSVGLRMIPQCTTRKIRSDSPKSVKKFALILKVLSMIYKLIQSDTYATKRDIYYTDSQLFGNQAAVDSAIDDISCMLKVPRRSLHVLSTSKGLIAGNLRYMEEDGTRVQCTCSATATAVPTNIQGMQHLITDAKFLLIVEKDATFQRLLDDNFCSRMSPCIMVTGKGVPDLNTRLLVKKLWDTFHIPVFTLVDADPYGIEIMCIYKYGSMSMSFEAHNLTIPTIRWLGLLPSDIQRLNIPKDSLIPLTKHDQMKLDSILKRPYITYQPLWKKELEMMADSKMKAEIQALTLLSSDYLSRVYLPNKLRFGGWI
Briefly: pull-down; SPO11β-GST or SPO11α-GST on glutathione-agarose beads incubated 3 h at 4 °C with HEK293 lysate in HEK-lysis buffer (400 mM NaCl, 5 mM EDTA, 50 mM Hepes-NaOH pH 7.4, 1% Triton X-100); washed with PBS; Western blot for FUS; only the target purified.

The target of assay [4] is T3, SPO11β-GST recombinant protein (UniProt Q9WTK8).
T3 sequence: T1 sequence
Described as above.

Assay [5] concerns the target FUS (fused in sarcoma)/TLS (translocated in liposarcoma), endogenous in mouse testis (mouse (endogenous in testis)) (UniProt P56959). The experiment in a line: co-IP; anti-FUS antibody on Dynabeads Protein-A, 4 °C; extracts of mouse testes (juvenile wild type, preleptotene/leptotene/zygotene enriched cells, Prdm9 transgenic and Spo11-/- mice) in Pierce IP lysis buffer with benzonase; Western blot.

In assay [6] the target is T1, SPO11, endogenous in wild-type mouse testis (mouse (endogenous in testis)). The experiment in a line: co-IP; anti-SPO11-180 antibody on Dynabeads Protein-A; total testis extract of an adult (6-month-old) wild-type mouse, with benzonase; Western blot.
Assay [7] deals with FUS (fused in sarcoma)/TLS (translocated in liposarcoma), endogenous in mouse testis (mouse (endogenous in testis)) (UniProt P56959). Briefly: co-IP; anti-FUS antibody on Dynabeads Protein-A, 4 °C; extracts of mouse testes (juvenile wild type, preleptotene/leptotene/zygotene enriched cells, Prdm9 transgenic and Spo11-/- mice) in Pierce IP lysis buffer with benzonase; Western blot. This is another data set of the same source.

Assay [8] concerns the target T1, SPO11, endogenous in wild-type mouse testis (mouse (endogenous in testis)). Briefly: condition: only in fractions enriched in pachytene/diplotene cells or round spermatids; co-IP; anti-SPO11-180 antibody on Dynabeads Protein-A; extracts of fractions enriched in pachytene/diplotene cells or round spermatids from adult mice, with benzonase; Western blot.

Take “EWS, endogenous in mouse testis (from UniProt Q61545 1-655)”: the binding result in assay [1] is listed as “binds”.
“FUS/TLS, endogenously expressed in HEK293 cells (from UniProt P35637 1-526)”: the binding entry in assay [2], in assay [3] and in assay [4] was “binds” each time.
“PR domain-containing 9 (PRDM9), endogenous in mouse testis (from UniProt Q96EQ9 1-843)”: the binding result in assay [5] and in assay [1] was “binds” each time.

B1: REC114, endogenous in mouse testis (protein, UniProt Q9CWH4 1-259)
chain: MSEAGNVASGLGLPGEVSQWSLKRYGRFMLLDNVGSPGPSSEAAAAGSPTWKVFESSEESGSLVLTIVVSGHFFISQGQTLLEGFSLIGSKNWLKIVRRMDCLLFGTTIKNKSRMFRVQFSGESKEEALERCCGCVQTLAQYVTVQEPDSTTQELQQSQGPREAGESQGKDPLQQGPSLTLEQHVCMAAGAGVLQERTSVTHRAQSILAPEKLTLAYEGSSWGTEELGPFLRLCLMDQNFPAFVEEVEKELKKITGLRN
As for B1, the binding result in assay [6] is reported as “binds weakly”; in assay [7] it was “binds”; in assay [1], “binds”; in assay [8] it was “no binding”.
